From the BET-seq Pho4 binding data (Le et al. 2018)
Some of the results follow. These are noisy estimates, calculated here from bound and input reads.

molecular target: T1, Pho4 (S. cerevisiae) (UniProt P07270); assay: relative binding free energy (BET-seq); higher = weaker binding; conditions: reference: library average
T1 sequence: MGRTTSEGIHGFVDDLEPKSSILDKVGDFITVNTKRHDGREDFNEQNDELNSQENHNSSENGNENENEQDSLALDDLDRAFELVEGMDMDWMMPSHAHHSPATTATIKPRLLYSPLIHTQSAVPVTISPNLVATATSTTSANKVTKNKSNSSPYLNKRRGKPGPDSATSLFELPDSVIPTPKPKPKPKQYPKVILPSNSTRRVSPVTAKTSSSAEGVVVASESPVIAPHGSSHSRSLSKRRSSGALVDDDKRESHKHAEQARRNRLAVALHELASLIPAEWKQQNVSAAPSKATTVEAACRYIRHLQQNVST

Row | Sequence | relative binding free energy [kcal/mol]
1 | GTTGGCACGTGGGCGA | -0.12
2 | AAATGCACGTGGTCTG | -0.22
3 | ATAGTCACGTGGATTG | 0.07
4 | AAGTTCACGTGACGTA | 0.45
5 | TTTCGCACGTGTTTGG | 0.01
6 | AAATGCACGTGAATTT | 0.24
7 | ATGTGCACGTGTTGTT | -0.05
8 | TTTGGCACGTGCGATG | -0.15
9 | GGTTACACGTGTAATT | 0.32
10 | ATTGTCACGTGGTTTC | 0.08
11 | CTTGCCACGTGAGGTG | 0.01
12 | TTGGCCACGTGACGGG | -0.03
13 | CGGGGCACGTGCAGTG | -0.17
14 | TTTTCCACGTGAGTTA | 0.24
15 | TTTGGCACGTGATAGG | -0.01
16 | ATTTTCACGTGAAAAA | 0.42
17 | CTATGCACGTGCGGGT | -0.09
18 | TTGCGCACGTGTCAGT | -0.12
19 | GACGTCACGTGGCGTG | 0.03
20 | CGAAACACGTGTGGTT | 0.08
21 | TTGAGCACGTGTTTCT | 0.04
22 | TCATGCACGTGGTTTT | -0.1
23 | GGGATCACGTGATGGG | 0.29

Row | Sequence | relative binding free energy [kcal/mol]
24 | TGTTCCACGTGTGGTG | 0.13
25 | AGGGACACGTGAAAGG | 0.23
26 | GGGTTCACGTGGGGCA | 0.29
27 | TCTAGCACGTGGTTTA | -0.21
28 | GTGGTCACGTGAGCGT | 0.27
29 | TGTGTCACGTGAGGCA | 0.29
30 | CTTTACACGTGGTTAG | 0.12
31 | GGTACCACGTGGGGAA | -0.13
32 | TTATCCACGTGCGGTT | 0.03
33 | ATGAGCACGTGGGTTC | -0.24
34 | TGTGGCACGTGTATAC | -0.16
35 | TGTCTCACGTGGGTCG | 0.09
36 | TTGAACACGTGTGGAT | 0.02
37 | GGAACCACGTGAGGGT | 0.27
38 | TTATTCACGTGTGTAG | 0.17
39 | TTGTACACGTGAAGAT | 0.21
40 | AAATGCACGTGGATTG | -0.01
41 | CACGGCACGTGTGGTT | 0.17
42 | GAAGGCACGTGTCTGG | 0
43 | TGATTCACGTGTGGAA | 0.22
44 | ATCGTCACGTGTTATT | -0.03
45 | TGTAACACGTGAACGT | 0.25
46 | TCCTTCACGTGATGGG | 0.3

Row | Sequence | relative binding free energy [kcal/mol]
47 | GGCGCCACGTGTGGTT | -0.04
48 | GAGGGCACGTGATGTG | 0.14
49 | GTGATCACGTGTTGGA | 0.2
50 | GATTTCACGTGGTAGA | 0.29
51 | AAGCTCACGTGGGGGA | -0.09
52 | TGTGACACGTGTTGAG | -0.05
53 | AATTTCACGTGGCTAG | 0.26
54 | TGAGTCACGTGGTACT | 0.01
55 | GTTTCCACGTGGTTGT | 0.19
56 | ATGTACACGTGGCAGG | -0.05
57 | ATCTGCACGTGTAATG | 0.15
58 | AAAAACACGTGTGGTT | 0.15
59 | TATTTCACGTGCGAGT | 0.13
60 | GAAAGCACGTGGGGGC | -0.02
61 | AGGGTCACGTGGTGAA | -0.01
62 | TCTGTCACGTGTGGCG | 0
63 | GTGTTCACGTGGCGCG | 0.09
64 | GTCCGCACGTGGGTTG | -0.19
65 | TGATGCACGTGTGAAG | 0.01
66 | TAGGGCACGTGGGCAG | -0.24
67 | TTTATCACGTGGGTGG | 0.01
68 | TTTGACACGTGTATCT | 0.02
69 | GTTTGCACGTGGTCTG | 0.02

Row | Sequence | relative binding free energy [kcal/mol]
70 | GGCGGCACGTGCGAGT | 0.03
71 | TGTAACACGTGAGGCT | 0.19
72 | ATTGGCACGTGGCAAA | -0.05
73 | TTTGGCACGTGTCGGA | -0.09
74 | TTGTGCACGTGGGGCG | -0.1
75 | AGTGTCACGTGTGTTC | 0.12
76 | ATGTACACGTGCTATG | -0.06
77 | AATTTCACGTGGCGTA | 0.11
78 | GATTGCACGTGTGTAC | 0.05
79 | CTGGTCACGTGTTGGG | 0.2
80 | CGGTTCACGTGTCAGG | 0.37
81 | TAGTCCACGTGTAGGG | 0.09
82 | TTGATCACGTGGGTCG | 0.1
83 | AATTACACGTGTGGGT | 0.16
84 | TGCTTCACGTGTTGTA | 0.2
85 | TATAGCACGTGTTTTA | -0.03
86 | CATTGCACGTGGTGTT | -0.07
87 | GTTAGCACGTGTGAGC | 0.02
88 | GCCTGCACGTGGTGTT | -0.07
89 | CTAGCCACGTGGAGGT | 0
90 | ATTGACACGTGGTAGT | 0.02
91 | TGTTTCACGTGATTCA | 0.29
92 | TGGAACACGTGTTTGA | 0.07

Row | Sequence | relative binding free energy [kcal/mol]
93 | CGGAGCACGTGGGGGG | -0.25
94 | AGAAGCACGTGGGCGG | -0.26
95 | GAGATCACGTGTTTTG | 0.12
96 | TTTGTCACGTGGTGCC | -0.01
97 | GATTGCACGTGGTGAA | 0.05
98 | TGTTTCACGTGACGGG | 0.26
99 | TAAGGCACGTGTCGTG | -0.04
100 | GTGGGCACGTGTTGTA | 0.01
101 | GGTTGCACGTGATGCG | 0.14
102 | TATCGCACGTGTCTTG | 0.05
103 | ACTTTCACGTGGCTGT | 0.26
104 | CATGTCACGTGTTCGG | 0.1
105 | TGTGACACGTGTAGAA | -0.03
106 | TTTGGCACGTGAATGT | 0.2
107 | TTAGCCACGTGTTTGG | -0.06
108 | GCTCACACGTGTGGTT | 0.15
109 | TTTATCACGTGGTCCT | 0.15
110 | AGGAGCACGTGACGTG | 0.15
111 | CGGAGCACGTGGGGAG | -0.18
112 | GTAGTCACGTGGTGGT | 0.1
113 | TGGTGCACGTGTAGAG | 0.13
114 | TGTGACACGTGGGTTC | -0.18
115 | AAGTTCACGTGGCGTC | 0.29
